{"source": "paper PMC3792642", "about": "(Acta Crystallographica Section D: Biological Crystallography, 2013)", "target": "MtbDsbA (Rv2969c) (Mycobacterium tuberculosis, UniProt O33272)", "assay": "ITC of VKOR-derived peptides binding to MtbDsbA", "set-up": "species or system Mycobacterium tuberculosis H37Rv", "conditions": "19 x 2 µl injections of 2-4 mM peptide into 100 µM MtbDsbA, 25 mM HEPES pH 7.4, 100 mM NaCl, 298 K, single-site fit, mean and SD of curve fits from two ITC runs, n.b. = no binding detected"}
{"substance": "VPSLNV (Ac-VPSLNV-NH2)", "values": [{"measurement": "K d,app (apparent dissociation constant)", "result": "n.b."}]}
{"substance": "YVPSANV (Ac-YVPSANV-NH2)", "values": [{"measurement": "K d,app (apparent dissociation constant)", "result": "n.b."}]}
